Source: article PMC4336329 (PLoS ONE, 2015)
The whole screen tested about 310,000 compounds, of which about 2,200 (0.71%) showed an effect of 50% or more. The effect is printed as a negative number. This is one part of the list.

These compounds were tested against human ether-à-go-go-related gene (hERG) potassium channel (human, UniProt Q12809) (assay: primary screen, population patch clamp on CHO cells stably expressing hERG).
human ether-à-go-go-related gene (hERG) potassium channel, sequence (Q12809 whole entry, looked up): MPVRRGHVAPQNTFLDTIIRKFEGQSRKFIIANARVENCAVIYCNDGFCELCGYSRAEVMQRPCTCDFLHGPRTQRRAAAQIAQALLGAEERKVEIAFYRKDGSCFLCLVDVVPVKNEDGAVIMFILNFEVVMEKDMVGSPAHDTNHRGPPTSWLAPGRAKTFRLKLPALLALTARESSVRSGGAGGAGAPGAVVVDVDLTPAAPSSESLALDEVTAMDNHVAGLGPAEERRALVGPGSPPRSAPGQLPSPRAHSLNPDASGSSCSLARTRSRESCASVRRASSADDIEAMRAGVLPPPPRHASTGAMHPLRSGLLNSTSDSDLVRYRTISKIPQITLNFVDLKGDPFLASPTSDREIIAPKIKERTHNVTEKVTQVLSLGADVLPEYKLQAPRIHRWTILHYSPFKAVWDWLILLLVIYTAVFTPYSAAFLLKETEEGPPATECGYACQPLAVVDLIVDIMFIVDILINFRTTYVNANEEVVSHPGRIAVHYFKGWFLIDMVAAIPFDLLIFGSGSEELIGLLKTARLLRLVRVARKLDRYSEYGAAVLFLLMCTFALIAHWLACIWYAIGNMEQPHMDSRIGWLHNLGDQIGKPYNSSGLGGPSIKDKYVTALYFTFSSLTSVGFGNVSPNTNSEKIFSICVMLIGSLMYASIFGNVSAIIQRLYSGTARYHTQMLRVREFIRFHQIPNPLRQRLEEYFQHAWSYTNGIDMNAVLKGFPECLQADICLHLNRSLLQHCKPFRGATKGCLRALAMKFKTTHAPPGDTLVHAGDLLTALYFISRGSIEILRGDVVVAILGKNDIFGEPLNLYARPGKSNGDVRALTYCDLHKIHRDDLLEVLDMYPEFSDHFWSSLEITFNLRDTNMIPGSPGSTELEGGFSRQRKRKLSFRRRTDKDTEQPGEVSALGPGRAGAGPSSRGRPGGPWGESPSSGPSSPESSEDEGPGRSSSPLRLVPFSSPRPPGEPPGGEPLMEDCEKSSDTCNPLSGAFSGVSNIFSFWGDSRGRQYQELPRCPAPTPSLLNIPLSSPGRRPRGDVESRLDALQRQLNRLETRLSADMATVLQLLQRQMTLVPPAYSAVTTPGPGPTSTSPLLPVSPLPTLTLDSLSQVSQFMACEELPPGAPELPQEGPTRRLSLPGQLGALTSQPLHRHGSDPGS

| Compound | hERG current change (%, negative = inhibition) at 1uM |
| --- | --- |
| COc1cccc(CC(NC(C)=O)C(=O)NC2CCN(c3nc(C)cc(C)c3C#N)CC2)c1 (stereo not drawn) | 6.32% |
| CCN(CC)CCCn1c2c(c(SCC(=O)Nc3cccc(C)c3C)nc1=O)CCC2 | -5.07% |
| CCN(CC)C(=O)Cc1c(OC)ccc2cc(Br)ccc12 | -19.3% |
| CCOc1ccc(Nc2cc(=O)[nH]c(=O)[nH]2)cc1 | 15.8% |
| COc1cc2c(cc1OC)CN(C(=O)c1cc(S(=O)(=O)N3CCOCC3)c(Cl)cc1Cl)CC2 | 9.54% |
| Cc1cccc(NC(=S)NN(Cc2ccccc2)c2ccccc2)c1C | 10.4% |
| CC(=O)/C(=N\Nc1ccccc1Cl)Sc1nnc(-c2ccccc2)n1-c1ccccc1 | 6.13% |
| Cc1cc(C)nc(NS(=O)(=O)c2ccc(NC(=O)Cc3ccc(F)cc3)cc2)n1 | 11.6% |
| CCOC(=O)c1c(C)[nH]c(C)c1C(=O)COC(=O)CNC(=O)C1CCCCC1 | 2.62% |
| CC(=O)Nc1ccc(S(=O)(=O)N(C)CC(=O)OCC(=O)N2CCc3ccccc32)cc1 | 13.9% |
| Cc1cccc(C(=O)N2CCCC(c3nc(-c4ccc(C)o4)no3)C2)c1 (stereo not drawn) | -6.12% |
| CC(OC(=O)CN1C(=O)c2ccccc2C1=O)C(=O)N(C)c1ccccc1 (stereo not drawn) | 7.02% |
| O=C(Cn1c(C(=O)O)cc2ccccc21)c1ccccc1 | 16% |
| O=C(COC(=O)Cc1cccc(C(F)(F)F)c1)Nc1ccc2[nH]c(=O)[nH]c2c1 | 19.5% |
| CCOC(=O)Cc1csc(N/N=C\c2cccc(Br)c2)n1 | -1.08% |
| C=CCN1C(=O)C2C(C(=O)NC3CCCC3)C3(C)C=CC2(O3)C1C(=O)NC1CCCC1 (stereo not drawn) | 11.8% |
| CCc1ccc(N(C(=O)CCC(=O)Nc2cc(C)on2)C(C(=O)NC2CCCC2)c2ccco2)cc1 (stereo not drawn) | 6.62% |
| O=S(=O)(NNC(=S)Nc1ccc(S(=O)(=O)Nc2ncccn2)cc1)c1ccc(Br)cc1 | 6.96% |
| Cc1cc(C)cc(NC(=O)c2ccc(N3C(=O)C4CCCCC4C3=O)cc2)c1 (stereo not drawn) | -15.6% |
| O=C(O)/C=C\C(=O)O.c1ccc(Sc2ccccc2CN2CCCC2)cc1 | -11.3% |
| Cc1ccc(CCN2C(=O)CCC2(C)C(=O)NCc2cccnc2)cc1 (stereo not drawn) | -3.19% |

| Compound | hERG current change (%, negative = inhibition) at 1uM |
| --- | --- |
| COc1cc(C(=O)NC2CCCCC2)ccc1OC1CCN(C(C)=O)CC1 | 11.4% |
| COCc1[nH]nc2c1C(c1ccccc1OC)C(C#N)=C(N)O2 (stereo not drawn) | 5.94% |
| CCOc1cc(C2C3=C(CCCC3=O)N(C)C3=C2C(=O)CCC3)cc(Cl)c1O | 12.7% |
| COc1c(Br)cc(Br)cc1/C=N/NC(=O)c1ccncc1 | 4.68% |
| O=C(C1CCN(S(=O)(=O)c2ccccc2)CC1)N1CCN(Cc2ccc3c(c2)OCO3)CC1 | 8.3% |
| O=C(NCc1ccco1)c1cc(-c2ccccn2)nc2ccccc12 | 7.78% |
| Cc1cc2ccccn2c1C(=O)Nc1ccc(Cl)cc1 | 2.01% |
| O=C(NCC(c1cccnc1)N1CCOCC1)c1ccc2c(c1)OCO2 (stereo not drawn) | -1.03% |
| Cc1cc(OC(=O)c2ccc(C(C)(C)C)cc2)c([N+](=O)[O-])c(=O)[nH]1 | 14.7% |
| CC(C)C[C@@H]1NC(=O)[C@H](Cc2ccc(O)cc2)NC(=O)[C@H](CCC(N)=O)NC(=O)c2cc([N+](=O)[O-])cc(I)c2NCC[C@@H](C(N)=O)NC1=O | 12% |
| C/C(=N\NC(=O)CCc1c[nH]c2ccccc12)c1ccc([N+](=O)[O-])cc1 | -11.7% |
| COc1cc(NC(=O)c2ccc3c(c2)OCO3)ccc1NC(=O)c1cccs1 | 8.76% |
| COc1cccc(NC(=O)OCCN2CCN(Cc3ccccc3)CCC2=O)c1 | -2.27% |
| COc1ccc(NC(=O)/C(C#N)=C/c2ccc(Sc3nncn3C)c([N+](=O)[O-])c2)cc1 | 12.6% |
| O=C(Nc1ccc(N2CCN(C(=O)c3cccs3)CC2)c(Cl)c1)c1ccco1 | -0.604% |
| C=CCn1c(CSc2nc3ccccc3s2)nnc1SCC(=O)NCCN1CCOCC1 | 1.08% |
| Cc1ccc(NC(=O)C2CCCN(S(=O)(=O)c3c(C)noc3/C=C/N(C)C)C2)c(C)c1 (stereo not drawn) | 7.79% |
| O=C(c1ccc(Cl)cc1)c1oc2ccccc2c1CS(=O)c1ccc(Cl)cc1 (stereo not drawn) | -2.3% |
| Cc1ccc(Nc2nc(NCCO)nc(N3CCCC3)n2)cc1 | 0.0745% |
| CC(C)Cc1ccc(S(=O)(=O)N2CCOCC2)cc1 | -10% |
| Cc1ccc(-n2c(=O)c3c(C)c(C)sc3n(Cc3cc(=O)n4ccccc4n3)c2=O)cc1C | 11.4% |

| Compound | hERG current change (%, negative = inhibition) at 1uM |
| --- | --- |
| COc1cc2c(cc1OC)/C(=C/C(=O)c1ccc(C)cc1)NCC2 | 9.94% |
| O=C(Cn1cc(S(=O)(=O)N2CCCC2)c(S(=O)(=O)N2CCCC2)c1)NCc1ccco1 | 11.2% |
| Nc1nnc(SCC(=O)Nc2nccs2)s1 | 6.38% |
| CC(C)(C)OC(=O)N1CCC(c2c(C(=O)NCC3CCN(C4CCCC4)C3)cnn2-c2ccccc2Cl)CC1 (stereo not drawn) | 10.4% |
| Cc1nn(CC(=O)Nc2cccnc2)c(=O)c2ccccc12 | -9.14% |
| O=[N+]([O-])c1ccc(C2CCCC/C2=N/O)c([N+](=O)[O-])c1 (stereo not drawn) | 7.37% |
| O=C(NCC1CC1)c1cc(-c2ccccc2)nn1CC1CC(c2cccnc2)=NO1 (stereo not drawn) | 5.05% |
| COc1ccc(N(CC(=O)N/N=C(\C)CCc2ccccc2)S(=O)(=O)c2ccc(C)cc2)cc1 | -7.27% |
| O=C(NCc1ccccc1)c1cccnc1N1CCOCC1 | 20.3% |
| CC1(c2nnc(-c3ccccc3)o2)CC(c2ccncc2)=NO1 (stereo not drawn) | 3.21% |
| C=CCn1c(SCc2nc3cc(C(F)(F)F)ccc3c(=O)[nH]2)nc2sc(CC)cc2c1=O | 11.6% |
| COc1ccc(NC(=O)COC(=O)Cc2ccc(-c3ccccc3)cc2)c(OC)c1 | 12.3% |
| COc1cc(OC)cc(N2CCN(S(=O)(=O)c3ccc(-n4cnnn4)cc3)CC2)c1 | 15.8% |
| Cc1ccc(/C(=N/Nc2nc3ccccc3s2)C2=C(O)c3ccccc3C2=O)cc1 | 10.5% |
| Cc1ccc(N2CCN(S(=O)(=O)N3CCCCC3)CC2)cc1C | 17.8% |
| CCN(c1ccccc1)S(=O)(=O)c1ccc(C(=O)Nc2nnc(-c3ccco3)o2)cc1 | 15.8% |
| CCCCCNCC(=O)Nc1cccc(C(=O)Nc2cccc(C(F)(F)F)c2)c1 | -0.783% |
| COc1ccc(CNC(NC(=O)c2ccccc2)(C(F)(F)F)C(F)(F)F)cc1 | 15.5% |
| CC1(C)CN=C(NC2CCCCC2)S1 | 12.6% |
| COc1ccc(S(=O)(=O)N(C)C2CCS(=O)(=O)C2)cc1OC (stereo not drawn) | 11.7% |
| COc1ccccc1N/C(=N/S(=O)(=O)c1ccc(Cl)cc1)c1ccccc1 | -5.77% |

| Compound | hERG current change (%, negative = inhibition) at 1uM |
| --- | --- |
| O=C(CCc1c[nH]c2ccccc12)NCC(=O)Nc1ccc(F)c(F)c1F | 13.2% |
| O=C(N/N=C/c1cccs1)c1cccc(S(=O)(=O)Nc2ccc(Cl)cc2)c1 | 17% |
| C[C@@]12C(=O)Nc3cc(F)ccc3C(=O)N1[C@H]1c3ccccc3OC[C@@H]1[C@@H]2c1ccccc1 | 23.3% |
| Cc1ccccc1N1CCN(C(=S)c2ccc([N+](=O)[O-])cc2)CC1 | -20.8% |
| COc1cccc(N2CC(C(=O)Nc3nnc(SCC(=O)Nc4ccc(NC(C)=O)cc4)s3)CC2=O)c1 (stereo not drawn) | 10% |
| Cc1c(C)c2ccc(OCC(=O)N3CCN(c4cccc(Cl)c4)CC3)cc2oc1=O | 11.6% |
| COc1ccccc1/C=C\C(=O)NCC(=O)N/N=C/c1ccc(O)cc1O | -0.0232% |
| N#Cc1cccc(NC(=O)CN2C(=O)NC(Cc3ccccc3)C2=O)c1 (stereo not drawn) | 8.48% |
| O=C(CSc1cccc2cccnc12)N/N=C/c1ccncc1 | 5.31% |
| Cc1cc(C)cc(N(C(=O)c2ccc(Br)o2)C2C=CS(=O)(=O)C2)c1 (stereo not drawn) | -5.09% |
| CCN(CC(=O)Nc1c(F)cccc1F)C(=O)C1CC(=O)N(c2ccc3c(c2)OCCO3)C1 (stereo not drawn) | 7.95% |
| Cc1nn(-c2ccccc2)c(N)c1N=Nc1cccc(S(=O)(=O)N2CCOCC2)c1 | 8.76% |
| O=C(NNC(=O)C1CCCO1)c1ccc([N+](=O)[O-])cc1 (stereo not drawn) | 6.63% |
| C[C@H]1CCC[C@]2(O[C@@H](CCO)C[C@@H](O)[C@@H]2O)O1 | -0.525% |
| O=C(C1CCCN1S(=O)(=O)c1cccc2nsnc12)N1CCCCC1 (stereo not drawn) | 11.6% |
| Cc1c(CN2CCC(CO)(CCOc3ccccc3)CC2)[nH]c2ccc(Cl)cc12 | -12.2% |
| O=C(O)CC1(CC(=O)Nc2ccc(Oc3cccc(C(F)(F)F)c3)nc2)CCCC1 | 10.4% |
| O=c1[nH]c2ccc(S(=O)(=O)N3CCN(c4ccccc4F)CC3)cc2s1 | -0.845% |
